The other results are listed elsewhere or left out. The full chains were built here from the parent and the listed change. Values near 0.05 are background.
B1: TEV protease; numbered along this chain (parent)
chain: MGESLFKGPRDYNPISSSICHLTNESDGHTTSLYGIGFGPFIITNKHLFRRNNGTLVVQSLHGVFKVKDTTTLQQHLVDGRDMIIIRMPKDFPPFPQKLKFREPQREERICLVTTNFQTKSMSSMVSDTSCTFPSGDGIFWKHWIQTKDGQCGSPLVSTRDGFIVGIHSASNFTNTNNYFTSVPKNFMELLTNQEAQQWVSGWRLNADSVLWGGHKVFMVKPEEPFQPVKEATQL

Variants of: B1
Test: raw area under fraction-flipped curve 0-4 h after induction (AUC4h, not background-subtracted), DNA-recorder readout of cleavage of the substrate (dimensionless); higher = more cleavage of the substrate by the protease variant
Conditions: temperature: 34 °C; time window: 0-4 h after rhamnose induction
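Also: Bxb1 expression induced with 0.2% (w/v) L-rhamnose at OD600 near 0.5, cultures sampled hourly, flipped fraction per protease–substrate barcode pair counted by paired-end Illumina sequencing.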

| Variant | area with substrate ENLYFDS | area with substrate ENLYFES | area with substrate ENLYFHS | area with substrate ENLYFIS | area with substrate ENLYFMS | area with substrate ENLYFNS | area with substrate ENLYFPS | area with substrate ENLYFTS | area with substrate ENLYFWS | area with substrate ENLYFYS | area with substrate ENLYFFS | area with substrate ENLYFGS | area with substrate ENLYFKS | area with substrate ENLYFLS | area with substrate ENLYFRS | area with substrate ENLYFSS | area with substrate ENLYFVS |
| --- | --- | --- | --- | --- | --- | --- | --- | --- | --- | --- | --- | --- | --- | --- | --- | --- | --- |
| MGESLFKGPRDYNPISSSICHLTNESDGHTTSLYGIGFGPFIITNKHLFRRNNGTLVVQSLHGVFKVKDTTTLQQHLVDGRDMIIIRMPKDFPPFPQKLKFREPQREERICLVTTNFQTKSMSSMVSDTSCTFPSGDGIFWKGWIQTKDGQCGSPLVSTRDGFIVGIHSASNFTNTNNYFTSVPKNFMELLTNQEAQQWVSGWRLNADSVLWGGHKVFMVKPEEPFQPVKEATQL [H143G] | 0.0505 | 0.0521 | 0.0601 | 0.0471 | 0.0613 | 0.0562 | 0.0567 | 0.0561 | 0.0546 | 0.0502 | – | – | – | – | – | – | – |
| MGESLFKGPRDYNPISSSICHLTNESDGHTTSLYGIGFGPFIITNKHLFRRNNGTLVVQSLHGVFKVKDTTTLQQHLVDGRDMIIIRMPKDFPPFPQKLKFREPQREERICLVTTNFQTKSMSSMVSDTSCTFPSGDGIFWKHWIPTKDGQCGSPLVSTRDGFIVGIHSASNFTNTNNYFTSVPKNFMELLTNQEAQQWVSGWRLNADSVLWGGHKVFMVKPEEPFQPVKEATQL [Q146P] | 0.0553 | 0.0628 | – | 0.0657 | 0.0792 | 0.071 | 0.0529 | – | 0.104 | – | 0.0732 | 0.0572 | 0.0656 | 0.0623 | 0.0695 | 0.0441 | 0.063 |
| MGESLFKGPRDYNPISSSICHLTNESDGHTTSLYGIGFGPFIITNKHLFRRNNGTLVVQSLHGVFKVKDTTTLQEHLVDGRDMIIIRMPKDFPPFPQKLKFREPQREERICLVTTNFQTKSMSSMVSDTSCTFPSGDGIFWKHWIQTKDGQCGSPLVSTRDGFIVGIHSASNFTNTNNYFTSVPKNFMELLTNQEAQQWVSGWRLNADSVLWGGHKVFMVKPEEPFQPVKEATQL [Q75E] | – | 0.063 | 0.0724 | 0.0516 | 0.0623 | 0.0561 | 0.0672 | 0.0498 | 0.046 | 0.0444 | 0.0481 | – | 0.0588 | 0.0487 | – | 0.0601 | 0.053 |
| MGESLFKGPRDYNPISSSICHLTNESDGHTTSLYGIGFGPFIITNKHLFRRNNGTLVVQSLHGVFKVKDTTTLQAHLVDGRDMIIIRMPKDFPPFPQKLKFREPQREERICLVTTNFQTKSMSSMVSDTSCTFPSGDGIFWKHWIQTKDGQCGSPLVSTRDGFIVGIHSASNFTNTNNYFTSVPKNFMELLTNQEAQQWVSGWRLNADSVLWGGHKVFMVKPEEPFQPVKEATQL [Q75A] | – | 0.084 | – | 0.0603 | 0.0691 | 0.0705 | – | – | 0.0688 | – | 0.0511 | – | 0.0901 | 0.0698 | – | – | – |
| MGESLFKGPRDYNPISSSICHLTNESDGHTTSLYGIGFGPFIITNKHLFRRNNGTLVVQSLHGVFKVKDTTTLQQHLVDGRDMIIIRMPKDFPPFPQKLKFREPQREERICLVTTNFQTKSMSSMVSDTSCTFPSGDGIFWKHWIQTKDGQCGSPLVSTRDGFIVGIHSASNETNTNNYFTSVPKNFMELLTNQEAQQWVSGWRLNADSVLWGGHKVFMVKPEEPFQPVKEATQL [F173E] | 0.0646 | – | 0.0536 | 0.0489 | 0.0569 | 0.0604 | 0.0472 | 0.0555 | – | – | – | – | – | – | – | 0.0662 | – |
| MGESLFKGPRDYNPISSSICHLTNESDGHTTSLYGIGFGPFIITNKHLFRRNNGTLVVQSLHGVFKVKDTTTLQQHLVDGRDMIIIRMPKDFPPFPQKLKFREPQREERICLVTTNFQTKSMSSMVSDTSCTFPSGDGIFWKHWIQTKDGQCGSPLVSTRDGFIVGIHSASNFTNTNNYFTSVPKNFMELLTNQEAQQWVSGWRLNADSVLWGGHKVFMVKPEEPFQPQKEATQL [V229Q] | 0.0643 | 0.0697 | 0.0603 | 0.0585 | 0.0865 | 0.0715 | 0.0618 | 0.0584 | – | 0.0648 | 0.0706 | – | 0.0698 | 0.0482 | – | 0.043 | 0.0526 |
| MGESLFKGPRDYNPISSSICHLTNESDGHTTSLYGIGFGPQIITNKHLFRRNNGTLVVQSLHGVFKVKDTTTLQQHLVDGRDMIIIRMPKDFPPFPQKLKFREPQREERICLVTTNFQTKSMSSMVSDTSCTFPSGDGIFWKHWIQTKDGQCGSPLVSTRDGFIVGIHSASNFTNTNNYFTSVPKNFMELLTNQEAQQWVSGWRLNADSVLWGGHKVFMVKPEEPFQPVKEATQL [F41Q] | – | 0.0451 | – | 0.0399 | 0.0562 | 0.0517 | 0.0505 | 0.0945 | 0.0451 | 0.0427 | 0.063 | 0.0574 | 0.0607 | – | 0.0392 | 0.054 | – |
| MGESLFKGCRDYNPISSSICHLTNESDGHTTSLYGIGFGPFIITNKHLFRRNNGTLVVQSLHGVFKVKDTTTLQQHLVDGRDMIIIRMPKDFPPFPQKLKFREPQREERICLVTTNFQTKSMSSMVSDTSCTFPSGDGIFWKHWIQTKDGQCGSPLVSTRDGFIVGIHSASNFTNTNNYFTSVPKNFMELLTNQEAQQWVSGWRLNADSVLWGGHKVFMVKPEEPFQPVKEATQL [P9C] | – | 0.0614 | – | 0.0554 | 0.0497 | 0.0581 | 0.0821 | – | 0.0509 | – | 0.0697 | – | – | – | – | 0.0438 | – |
| MGESLFKGPRDYNPISSSICHLTNESDGHTTSLYGIGFGPFIITNKHLFRRNNGTLVVQSLHGVFKVKDTTTLQQHLVDGRDMIIIRMPKDFPAFPQKLKFREPQREERICLVTTNFQTKSMSSMVSDTSCTFPSGDGIFWKHWIQTKDGQCGSPLVSTRDGFIVGIHSASNFTNTNNYFTSVPKNFMELLTNQEAQQWVSGWRLNADSVLWGGHKVFMVKPEEPFQPVKEATQL [P94A] | – | 0.0657 | – | 0.0563 | – | – | – | 0.0605 | – | 0.0643 | 0.0574 | – | – | – | – | 0.0615 | – |
| MGESLFKGPRDYNPISSSICHLTNESDGHTTSLYGIGFGPFIITNKHLFRRNNGTLVVQSLHGVFKVKDTTTLQQHLVDGRDMIIIRMPKDFPPFPQKLKFREPQREERICLVTTNFQTKSMSSMVSDTSCTFPSGDGIFWKHWIQTKDGQCGSPLVSTRDGFIVGIHSASNFTNTNNYFTSVPKNFMELLTNQEAQQWVSGWRLNADSVLWGGHKVFTVKPEEPFQPVKEATQL [M219T] | 0.0429 | 0.0369 | 0.0566 | 0.0514 | 0.0589 | 0.0399 | 0.0679 | – | 0.0728 | 0.0586 | 0.0659 | 0.0853 | – | – | 0.0473 | 0.072 | 0.062 |

— the supplement of paper PMC12217912
